Test results: PubChem BioAssay AID1768 (National Center for Advancing Translational Sciences (NCATS), 2009)
In all, about 270,000 compounds went through this assay and about 620 (0.23%) were called active. The shares of active, inactive and inconclusive entries below differ from those in the screen. The call rests on the fitted dose curve; in most records, active means well fitted inhibition curve with a large enough effect in the polarisation, with a control signal flat (not every such curve was filed as active); inconclusive means small, poorly fitted or top-dose-only effect, or effect the other way, or a change in a side signal; inactive means no such curve, though single readings can be large or run the other way; the % refers to the polarisation. Potencies of inconclusive entries are doubtful fits and often do not repeat. A note “side channel” means that the fit belongs to a control or component signal, not to the main read-out.

target: Menin (Homo sapiens) (UniProt O00255); assay: qHTS Assay for Inhibitors Targeting the Menin-MLL Interaction in MLL Related Leukemias: Competition With Texas Red Labeled MLL-derived Mutant Peptide; conditions: fluorescence polarization; FP activity change, negative = inhibition: at 61.6 µM (top of the series); on FP activity change, negative = inhibition: % of control where 0% means no effect
Chain of UniProt O00255 (O00255 whole entry, looked up): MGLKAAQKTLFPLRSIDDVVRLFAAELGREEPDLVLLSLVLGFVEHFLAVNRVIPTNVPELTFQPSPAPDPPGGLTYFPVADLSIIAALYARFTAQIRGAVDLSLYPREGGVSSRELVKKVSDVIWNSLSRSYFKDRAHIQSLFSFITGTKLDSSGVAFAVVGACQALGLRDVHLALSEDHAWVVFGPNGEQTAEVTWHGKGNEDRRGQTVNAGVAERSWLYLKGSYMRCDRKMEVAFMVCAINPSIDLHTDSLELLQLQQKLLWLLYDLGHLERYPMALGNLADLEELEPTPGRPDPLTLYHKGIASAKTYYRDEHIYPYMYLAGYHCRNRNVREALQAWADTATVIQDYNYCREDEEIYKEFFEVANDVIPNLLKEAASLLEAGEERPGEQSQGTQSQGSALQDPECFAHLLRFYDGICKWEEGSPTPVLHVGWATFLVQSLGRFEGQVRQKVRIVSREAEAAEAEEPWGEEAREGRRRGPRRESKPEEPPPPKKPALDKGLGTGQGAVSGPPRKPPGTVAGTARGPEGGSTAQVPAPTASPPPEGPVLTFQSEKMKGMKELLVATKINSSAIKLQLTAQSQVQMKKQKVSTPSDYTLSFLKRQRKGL
Potency means the concentration at half of the fitted maximal effect; tags describe the fitted curve by direction and shape or compound fluorescence and quenching.

**Q.** For `Cc1ccc(C(=O)N2CCN(Cc3ccc4c(c3)OCO4)CC2)cc1[N+](=O)[O-]`, which Potency is on record?
**A.** inconclusive: 15.8 µM [fluorescent, side channel, partial curve]

**Q.** With `CCOc1ccc(NC(=NCc2ccc3c(c2)OCO3)SC2CC(=O)N(c3ccccc3)C2=O)cc1` (centres undefined) as the compound, how does the Potency read?
**A.** inconclusive: 17.8 µM [inhibitor, single point]

**Q.** For `COc1cccc([C@@H]2Oc3ccc(OC)cc3C(=O)[C@H]2OC(=O)NCCc2ccc(OC)c(OC)c2)c1`, which Potency is on record?
**A.** inactive

**Q.** Which Potency does the source give for `CCCc1cc(=O)oc2cc(OC(C)C(=O)NCC3CCC(C(=O)O)CC3)ccc12` (centres undefined) here?
**A.** inactive

**Q.** For `O=C(N/N=C/c1ccsc1)c1cc2ccccc2o1`, which Potency is on record?
**A.** inconclusive: 39.8 µM [inhibitor, single point]

**Q.** `COCc1nnc(NC(=O)c2ccc(S(=O)(=O)N3CCCc4ccccc43)cc2)o1` was tested. Which Potency did it give?
**A.** inconclusive: 39.8 µM [quencher, side channel, single point]

**Q.** With `COc1ccc2nc(NC(=O)Nc3ccccc3OC)sc2c1` as the compound, how does the Potency read?
**A.** inconclusive: 4.47 µM [quencher, side channel, full curve, poor fit]

**Q.** How did the Potency turn out when `O=C(/C=C/c1ccc2c(c1)OCO2)Nc1nc(-c2ccccc2)cs1` was run?
**A.** inconclusive: 39.8 µM [inhibitor, single point]

**Q.** With `COc1ccc(C[C@H]2CN3C(=NC[C@H]3Cc3ccccc3)N2CCNC(=O)CCC2CCCCC2)cc1` as the compound, how does the Potency read?
**A.** inconclusive: 7.94 µM [fluorescent, side channel, partial curve]

**Q.** `O=C(CSc1nnc(SCc2cccc3ccccc23)s1)N/N=C/c1c[nH]c2ccccc12` was tested. Which Potency did it give?
**A.** inconclusive: 20 µM [quencher, side channel, partial curve]

**Q.** How did the Potency turn out when `COc1ccc(C(OCC(O)CNCCc2ccccc2)c2ccc(OC)cc2)cc1` (centres undefined) was run?
**A.** inconclusive: 10 µM [inhibitor, partial curve, poor fit]

**Q.** How did the Potency turn out when `O=S(=O)(Nc1ccc(N=Nc2ccccc2)cc1)c1ccccc1` was run?
**A.** inconclusive: 39.8 µM [quencher, side channel, single point]

**Q.** How did the Potency turn out when `Cc1cc(C)c(C)c(S(=O)(=O)Nc2ccc(C(=O)N3CCCC3)cc2)c1C` was run?
**A.** inconclusive: 6.31 µM [fluorescent, side channel, partial curve]

**Q.** `CNC(=S)/N=C/NOCc1ccc(Cl)cc1Cl` was tested. Which Potency did it give?
**A.** inconclusive: 31.6 µM [quencher, side channel, single point]

**Q.** For `COc1cc(C(=O)N2CCN(C(=O)c3cc(-c4ccccc4)n[nH]3)CC2)cc(OC)c1OC`, which Potency is on record?
**A.** inconclusive: 28.2 µM [fluorescent, side channel, single point]

**Q.** With `O=C(CCNC(=O)c1ccccc1)OCC(=O)c1cccc(Cl)c1` as the compound, how does the Potency read?
**A.** inactive

**Q.** With `Cc1ccc(C(=O)CCC(=O)Nc2ccc(Cl)c(S(=O)(=O)Nc3cccc(Cl)c3)c2)cc1` as the compound, how does the Potency read?
**A.** inconclusive: 39.8 µM [inhibitor, single point]

**Q.** How did the Potency turn out when `NCCc1ccc(O)c(O)c1` was run?
**A.** inactive

**Q.** Which Potency does the source give for `COc1cccc(CN2C(=O)c3ccccc3C2C(=O)NCC2CCCO2)c1` (centres undefined) here?
**A.** inactive

**Q.** `CCCOc1ccc2oc(=O)c3c(c2c1)CCCN3C(=O)CN1CCCC(C(=O)OCC)C1` (centres undefined) was tested. Which Potency did it give?
**A.** inconclusive: 11.2 µM [inhibitor, partial curve, poor fit]

**Q.** Which Potency does the source give for `Clc1ccc(SCCOCCN2CCCCCC2)cc1` here?
**A.** inconclusive: 7.94 µM [inhibitor, partial curve]

**Q.** With `O=C(OCCOc1ccccc1Cl)c1ccc(-n2cnnn2)cc1` as the compound, how does the Potency read?
**A.** inconclusive: 22.4 µM [quencher, side channel, single point]

**Q.** Which Potency does the source give for `CNC(=O)c1cccc(NC(=O)C(C)c2ccc3cc(OC)ccc3c2)c1` (centres undefined) here?
**A.** inconclusive: 39.8 µM [quencher, side channel, single point]

**Q.** Which Potency does the source give for `S=C(Nc1ccc2snnc2c1)N1CCN(c2ccccn2)CC1` here?
**A.** inconclusive: 39.8 µM [fluorescent, side channel, single point]

**Q.** With `Cc1ccc(S(=O)(=O)N[C@@H](CCc2ccccc2)CC(=O)C(C)(C)C)cc1` as the compound, how does the FP activity change, negative = inhibition read?
**A.** inactive: -0.163% [at 11.7 µM]

**Q.** How did the Potency turn out when `O=C(C[n+]1ccncc1)c1ccccc1` was run?
**A.** inconclusive: 5.01 µM [inhibitor, full curve, poor fit]

**Q.** For `CCc1nc(Nc2ccc(O)cc2)c2oc3ccccc3c2n1`, which Potency is on record?
**A.** inconclusive: 28.2 µM [quencher, side channel, partial curve]

**Q.** How did the Potency turn out when `O=C1C(=O)N(CCN2CCOCC2)C(c2ccc(F)cc2)/C1=C(/O)c1ccc(S(=O)(=O)N2CCOCC2)cc1` (centres undefined) was run?
**A.** inconclusive: 4.47 µM [inhibitor, full curve, poor fit]

**Q.** Which Potency does the source give for `Cc1cc([N+](=O)[O-])ccc1NC(=S)NC(=O)C(c1ccccc1)c1ccccc1` here?
**A.** inconclusive: 14.1 µM [quencher, side channel, partial curve]

**Q.** `C=C1CCN(C(CC(C)C)C(=O)NCCCc2ccccc2)S(=O)(=O)c2ccccc21` (centres undefined) was tested. Which Potency did it give?
**A.** inactive

**Q.** With `C=CCOC(=O)c1ccc(N2CCN(c3ccccc3)CC2)nc1` as the compound, how does the Potency read?
**A.** inconclusive: 1.26 µM [inhibitor, full curve, poor fit]

**Q.** For `Cc1cccc(-c2nc(Nc3ccc(N4CCOCC4)cc3)c3ccccc3n2)c1`, which Potency is on record?
**A.** inconclusive: 8.91 µM [quencher, side channel, partial curve]

**Q.** With `Cc1ccc(NC(=O)CSC2=C(C#N)C(c3ccc4c(c3)OCO4)CC(=O)N2)cc1C` (centres undefined) as the compound, how does the Potency read?
**A.** inconclusive: 39.8 µM [inhibitor, single point]

**Q.** For `O=C(Cc1c(F)cccc1Cl)OCN1C(=O)c2ccccc2C1=O`, which Potency is on record?
**A.** inconclusive: 31.6 µM [inhibitor, single point]

**Q.** For `CCCC[C@@H]1CCCO[C@@](C(=O)NCCN2CCOCC2)(C(F)(F)F)C1`, which Potency is on record?
**A.** inactive

**Q.** How did the Potency turn out when `N/C(=N\OC(=O)Cc1ccc(-c2ccccc2)cc1)c1ccncc1` was run?
**A.** inconclusive: 31.6 µM [fluorescent, single point]

**Q.** Which Potency does the source give for `Cc1ccccc1NC(=O)Cn1c(C)nc2ccc(NC(=O)C3CC3)cc2c1=O` here?
**A.** inconclusive: 7.08 µM [quencher, side channel, full curve, poor fit]

**Q.** Which Potency does the source give for `CNC(=O)c1ccsc1NC(=O)c1sc2ccccc2c1Cl` here?
**A.** inconclusive: 10 µM [quencher, side channel, partial curve]

**Q.** For `CN(C)c1cccc(N=C2C=C(N3CCOCC3)CC(C)(C)C2)c1`, which Potency is on record?
**A.** inactive

**Q.** With `CN1CCN(c2ncc3nc(-c4cccs4)c(=O)n(CCC#N)c3n2)CC1` as the compound, how does the Potency read?
**A.** inactive

**Q.** For `Nc1c(S(=O)(=O)c2cccs2)c2nc3ccccc3nc2n1/N=C/c1cccc(O)c1`, which Potency is on record?
**A.** inconclusive: 10 µM [quencher, side channel, partial curve]

**Q.** With `Cc1ccccc1S(=O)(=O)Nc1nc2ccccc2nc1N1CCc2ccccc2C1` as the compound, how does the Potency read?
**A.** inactive

**Q.** `O=C(CN(c1cccc(C(F)(F)F)c1)S(=O)(=O)c1ccc(Cl)c([N+](=O)[O-])c1)NCc1ccc(F)cc1` was tested. Which Potency did it give?
**A.** inconclusive: 22.4 µM [quencher, side channel, partial curve]

**Q.** How did the Potency turn out when `O=C(NCC1COc2ccccc2O1)c1cn(Cc2ccc(F)cc2)nn1` (centres undefined) was run?
**A.** inconclusive: 28.2 µM [fluorescent, side channel, single point]

**Q.** How did the Potency turn out when `COc1cccc(C(=O)Oc2ccc3c(C)cc(=O)oc3c2C(C)=O)c1` was run?
**A.** inconclusive: 22.4 µM [fluorescent, side channel, partial curve]

**Q.** For `Cc1ccc(CSCc2nnc(SCC(=O)N3CCN(c4ccccc4)CC3)n2C)cc1`, which Potency is on record?
**A.** inconclusive: 10 µM [fluorescent, side channel, partial curve]

**Q.** Which Potency does the source give for `COCc1cc(C)nc(OCC(=O)N/N=C/c2cccc(OC)c2)c1C#N` here?
**A.** inactive

**Q.** Which Potency does the source give for `COc1ccc2nc(NC(=O)C(NS(=O)(=O)c3cccs3)C(C)C)sc2c1` (centres undefined) here?
**A.** inconclusive: 14.1 µM [inhibitor, partial curve]

**Q.** `C/C(=N\NC(=O)c1ccccc1O)C1C(=O)c2ccccc2C1=O` was tested. Which Potency did it give?
**A.** inconclusive: 15.8 µM [quencher, side channel, partial curve]

**Q.** For `COc1cccc(-c2noc(CCCC(=O)Nc3ccc(C(N)=O)cc3)n2)c1`, which Potency is on record?
**A.** inconclusive: 35.5 µM [fluorescent, side channel, single point]

**Q.** For `C=CCN(C(=O)CN1CCOCC1)c1nc(C)c(-c2ccccc2)s1`, which Potency is on record?
**A.** inconclusive: 39.8 µM [inhibitor, single point]

**Q.** `Cc1cc(-c2ccccc2)nc(SCC(=O)c2cccc([N+](=O)[O-])c2)n1` was tested. Which Potency did it give?
**A.** inconclusive: 25.1 µM [quencher, side channel, partial curve]

**Q.** How did the Potency turn out when `COc1cccc(-c2nnc(NC(=O)c3ccc(Cl)s3)o2)c1` was run?
**A.** inconclusive: 20 µM [quencher, side channel, single point]

**Q.** For `COc1cccc(/C=N/N(C)C2=NS(=O)(=O)c3ccccc32)c1O`, which Potency is on record?
**A.** inconclusive: 28.2 µM [fluorescent, side channel, single point]

**Q.** With `CCN(CC)c1ccc(NC(=O)c2ccc3c(c2)OCO3)c(C)c1` as the compound, how does the Potency read?
**A.** inactive

**Q.** `Cc1cccc2c1N(CCOc1ccccc1)C(=O)C2=O` was tested. Which Potency did it give?
**A.** inconclusive: 12.6 µM [fluorescent, side channel, partial curve]

**Q.** Which Potency does the source give for `CCN(CC)S(=O)(=O)c1cccc(C(=O)Oc2cccc(NC(=O)c3cccs3)c2)c1` here?
**A.** inconclusive: 11.2 µM [quencher, side channel, partial curve]

**Q.** Which Potency does the source give for `COc1ccc(CCN(C)Cc2ccc(OC)c(OCc3ccccc3)c2)cc1OC` here?
**A.** inactive

**Q.** For `Cc1ccc(C2=NNC(=O)C(c3c[nH]c4ccccc34)C2)cc1` (centres undefined), which Potency is on record?
**A.** inconclusive: 39.8 µM [fluorescent, side channel, single point]
